In the RNAGym collection of RNA variant scans (doi:10.1101/gad.245936.114):
Variants at the floor of the assay are shown more often than the library holds them.

B1: tRNA (parent)
chain: CUCUCGGUAGCCAAGUUGGUUUAAGGCGCAAGACUUUAAUUUAUCACUACGAAAUCUUGAGAUCGGGCGUUCGACUCGCCCCCGGGAGAUUUUUUCCUCGAGCAA

Variants of: B1
Assay: nonsense suppression (GFP-seq) (ratio to wild type); higher = more function; SUP4oc tRNA, yeast GFP reporter sort-seq
Method in brief: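 Yeast carrying genome-integrated SUP4oc tRNA variants from a library with ~3% random mutations were grown in raffinose/galactose medium with 80 mg/L adenine. Each strain also carried a galactose-driven GFP ochre reporter and RFP. Cells were sorted into GFP/RFP bins, and each bin was Illumina-sequenced (phred ≥30). Nonsense suppression (GFPSEQ) is the bin median GFP/RFP, weighted by each variant's estimated cell share per bin, relative to wild-type SUP4oc; variants needed ≥100 reads and ≥30 cells.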

Nonsense suppression, ≤ 0.026:
CUCUUGUUAGCCAAGUUGGUUUAAGGCGCAAGACUUUAAUUUAUCACUACGAAAUCUUGAGAUCGGGCGUUCGACUCGCCCCCGGGAGAUUUUUUCCUCGAGCAA
CUCUUGGUAGCCAAGGUGGUUUAAGGCGCAAGACUUUAAUUUAUCACUACGAAAUCUUUAGAUCGGGCGUUCGACUCCCCCCCGGGAGAUUUUUUCCUCGAGCAA
CUCUUGGUAGCCAAGUUGGUUUAAGGCGCAAGACUUUAAUUUAUCACUACGAAAUCUUGAGAUCGGGCGUUUGACUCGCCCCCGGGAGAUUUUUUCCUCGAGCAA
CUCUUGUUAGCCAAGUUGCUUUAAGGCGCAAGACUUUAAUUUAUCACUACGAAAUCUUGAGAUCGGGCGUUCGACUCGCCCCCGGGAGAUUUUUUCCUCGAGCAA
CUCUUGGUAGCCAAGUUGGUUUAAGGCGCAAGACUUUAAUUUAUCACUACGAAAUCUUGAGAUCGGGCGUUCGACUGGCCCCCGGGAGAUUUUUUCCUCGAGCAA
CUCUUGGUAGCCAAGUUGGUUUAAGGCGCAAGACUUUAAUUUAUCACUACGAAAUCUUGAGAUCGGGAGUUCGACUCGCCCGCGGGAGAUUUUUUCCUCGAGCAA
CUCUUGGUAGCCAAGUUGGUUUAAGGCGCAAGACUUUAAUUUAUCACUACGAAAUCUUGAAAUGGGGCGUUCGACUCGCCCCCGCGAGAUUUUUUCCUCGAGCAA
CUCUUGGUAGCCAAUUUGGUUUAAGGCGCAAGACUUUAAUUUAUCACUACGAAAUCUUGAUAUCGGGCGUUCGACUCGCCCCCGGGAGCUUUUUUCCUCGAGCAA
CUCUUGGUAUCCAAGUAGGUUGAAGGCGCAAGUCUUUAAUUUAUCACUACGAAAUCUUGAGAUCGGGCGUUCGACUCGCCCCCGGGAGAUUUUUUCCUCGAGCAA
CUCUUGGUAGCCAAGUUGGUUUAAGGCGCAAGACUUUAAUUUAUCACUACGAAAUCUUGAGAUCGGGCGUUCGACUCGCGCCCGGGAGAUUUUUUCCUCGAGCAA
CUCUUGGUACCCAAGUUGGUUUAAGGCGCAAGACUUUAAUUUAUCACUACGAAAUCUUGAGGUCGGGCGUUCGACUCGCCCCCGGGAGAUUUUUUCCUCGAGCAA
CUCUUGGAAGCCAAGUUGGUUUAAGGCGCAAGACUUUAAUUUAUCACUACGAAAUCUUGAGAUCGGGCGUUCGACUCGCCACCGGGAGAUUUUUUCCUCGAGCAA
CUCUUGGUAGCCAAGUUGGUUUAAGGCGCAAGAAUUUAAUUUAUCACUACGAAAUCUUGAGAUCAGGCGUUCGACUCGCCCCCGGGAGAUUUUUUCCUCGAGCAA
CUCUUGGUAGCCAAGUUGGUUUAAGGCGCAAGACUUUAAUUUAUCACUACGAAAUCUUGAGAUCGGGCGUUCGACUCCCCCCCGGGAGAUUUUUUCCUCGAGCAA
CUCUUGGGAGCCAAGUAGGUUAAAGGCGCAAGACUUUAAUUUAUCACUACGAAAACUUGAGACCGGGCGUUCGACUCGCCCCCGGGAGAUUUUUUCCUCGAGCAA
CUCUUGGUAGCCAAGUUGCUUUAAGGCGCAAGACAUUAAUUUAUCACUACGAAAUCUUGAGAUCGGGCGUUCGACUCGCCCCCGGGAGGUUUUUUCCUCGAGCAA
CUCUUGGUAGCCAAGUUGGUUUAAGGCGCAAGACUUUAAUUUAUCACUACGAAAUCUUGAGAUGGGGCGUUCGACUCGCUCCCGGGAGAUUUUUUCCUCGAGCAA
CUCUUGGUAACCGAGUUGGUUUAAGGCGCAAGACUUUAAUUUAUCACUACGAAAUCUUGAGAUCGGGCGUUCAAAUCGCCCCCGGCAGAUUUUUUCCUCGAGCAA
CUCUUGGUAGCCAAGCUGGUUUAAGGCGCAAGACUUUAAUUUAUCACUACGAAAUCUUGAGAUAGGGCUUUCGACUCGCCCCCGGGAGAUUUUUUCCUCGAGCAA
CUCUUGGUAGCCAAAUUGGUUUAAGGCGCAAGACUUUAAUUUAUCACUACGAAAUCUUGAGAUCGGGCGUUCGACUCGCCCCCGGCAGAUUUUUUCCUCGAGCAA
CUCUUUGUAGCCAAGUUGGUUUAAGGCGCAAGACUUUAAUUUAUCACUACGAAAUCUUGAGAUCGGGCGUUCGACUCGCCCCCCGGAGAUUUUUUCCUCGAGCAA
CUCUUGGUAGCCAAGUUGGUUUAAGGCGCAAGACUUUAAUUUAUCACUACGAAAUCUUGAGAUCGGGCUUACGACUCGCCCCCGUGAGAUUUUUUCCUCGAGCAA
CUCUUGGUAGCCAAGUUGGUUUAAGCCGCAAGACUUUAAUUUAUCACUACGAAAUCUUGAGAUCGGGCGUUCGACUCGCCCCCGGGAGAUUUUUUCCUCGAGCAA
CUCUUGGUAGCCAAGUUGCUUUAAGGCGCAAGACGUUAAUUUAUCACUACGAAAUCUUGAGAUCGGGCGUUCGACUCGCCCCCGAGGGAUUUUUUCCUCGAGCAA
CUCUUGGUAGCCAAGUUGGUUUAAGGCGCAAGACUUUAAUUUAUCACUACGAAAUCUUGAGAUCGGGUGUUCGACUCGCCCCCGGGAGAUUUUUUCCUCGAGCAA
CUCUUGGUAGCCAAUUUGGUUUAAGGCGCAAGACUUUAAUUUAUCACUACGAAAUCGUUAGAUCGGGCGUUCGACUCGCCCCCGGGACAUUUUUUCCUCGAGCAA
CUCUUGUUAGCCAAGUUGGUUUAAGGCGCAAGAGUUUAAUUUAUCACUACGAAAUCUUGAGAUCGGGCGAUCGACUCGCCCCCGGGAGAUUUUUUCCUCGAGCAA
